Reference: paper PMC4336329 (PLoS ONE, 2015)
The whole screen tested about 310,000 compounds, of which about 14,000 (4.5%) showed an effect of 50% or more. Effects have a minus sign here. Some of the results follow.

What follows are compounds tested against human ether-à-go-go-related gene (hERG) potassium channel (human, UniProt Q12809) (assay: primary screen, population patch clamp on CHO cells stably expressing hERG).
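Also: peak tail current of the secondary pulse compared with the same well before compound.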

human ether-à-go-go-related gene (hERG) potassium channel, sequence (Q12809 whole entry, looked up): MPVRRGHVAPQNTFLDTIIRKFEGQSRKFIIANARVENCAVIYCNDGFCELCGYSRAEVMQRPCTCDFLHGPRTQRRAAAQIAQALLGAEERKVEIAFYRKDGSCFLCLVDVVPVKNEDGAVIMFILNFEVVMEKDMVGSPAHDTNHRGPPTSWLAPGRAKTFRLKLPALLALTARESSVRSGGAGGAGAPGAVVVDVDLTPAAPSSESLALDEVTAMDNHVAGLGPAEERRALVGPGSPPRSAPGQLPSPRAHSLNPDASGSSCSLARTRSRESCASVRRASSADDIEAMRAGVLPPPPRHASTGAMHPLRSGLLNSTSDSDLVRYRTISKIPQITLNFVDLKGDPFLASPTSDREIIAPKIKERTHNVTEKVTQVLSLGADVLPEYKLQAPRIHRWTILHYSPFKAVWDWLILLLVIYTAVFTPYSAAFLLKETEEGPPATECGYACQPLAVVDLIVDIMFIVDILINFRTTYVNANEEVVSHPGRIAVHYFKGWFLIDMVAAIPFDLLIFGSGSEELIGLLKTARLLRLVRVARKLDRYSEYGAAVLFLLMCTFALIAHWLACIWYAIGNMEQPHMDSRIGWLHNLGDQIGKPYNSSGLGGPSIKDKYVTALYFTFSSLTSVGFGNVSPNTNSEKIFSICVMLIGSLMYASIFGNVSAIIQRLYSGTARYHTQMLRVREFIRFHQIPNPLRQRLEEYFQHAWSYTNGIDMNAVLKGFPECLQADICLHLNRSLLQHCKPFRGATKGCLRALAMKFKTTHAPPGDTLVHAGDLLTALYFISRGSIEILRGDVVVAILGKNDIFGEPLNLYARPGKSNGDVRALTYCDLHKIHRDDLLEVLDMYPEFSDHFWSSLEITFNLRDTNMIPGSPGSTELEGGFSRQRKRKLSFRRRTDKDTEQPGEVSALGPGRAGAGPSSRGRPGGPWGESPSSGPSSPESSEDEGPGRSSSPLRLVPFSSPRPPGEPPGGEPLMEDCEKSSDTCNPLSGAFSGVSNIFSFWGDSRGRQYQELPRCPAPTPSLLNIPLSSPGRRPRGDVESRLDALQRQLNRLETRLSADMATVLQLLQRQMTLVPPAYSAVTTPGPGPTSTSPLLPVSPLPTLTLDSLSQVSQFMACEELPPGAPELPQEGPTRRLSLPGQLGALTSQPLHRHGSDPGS

SMILES	hERG current change (%, negative = inhibition) at 10uM [%]
Cc1c(C)c2ccc(OCC(=O)N3CCOCC3)c(C)c2oc1=O	-20.3
CCc1ccc(CNC(=O)C2CCC(=O)N(CCc3ccc(Cl)cc3)C2)nc1 (centres unmarked)	-67
CCOc1ccc(-n2cnc3sc(C)c(C)c3c2=O)cc1	23.8
Cc1cc(SC(C)C(=O)NCC(=O)Nc2ccc(F)c(F)c2F)nc2ccccc12 (centres unmarked)	0.057
COc1ccc(CCc2nnc(CCC(=O)NCc3cnn(-c4ccccc4C)c3)o2)cc1	0.419
O=C(NC1CCN(Cc2ccccc2)CC1)c1ccccc1	-33.3
COC(=O)/C(=C/c1ccccc1)NC(=O)c1ccco1	4.23
O=C(COc1ccccc1)N=C1SC2CS(=O)(=O)CC2N1c1ccc(F)cc1F (centres unmarked)	16.1
CCOC(=O)CSc1ncc(-c2ccccc2)nn1	-6.58
CC1CCN(C(=O)CSc2nnc(Cc3ccccc3)o2)CC1	-12.2
COc1cccc(C2/C(=C(/O)c3ccc(C)cc3)C(=O)C(=O)N2Cc2ccco2)c1 (centres unmarked)	3.57
COc1c(-c2ccc([N+](=O)[O-])cc2[N+](=O)[O-])c(=O)n(C)c(=O)n1C	13.6
Cc1ccc(O)c(/C=N/NC(=O)c2[nH]ncc2Br)c1	15.3
CCOC(=O)C(C)Sc1nnc(Cn2c(=O)sc3ccccc32)n1-c1ccccc1 (centres unmarked)	-14
CCOc1ccc(NC(=O)c2cc3n(n2)C(C(F)(F)F)CC(c2ccco2)N3)cc1 (centres unmarked)	22.5
COc1ccccc1Nc1ncc(C(C)=O)c(C)n1	10.9
NS(=O)(=O)c1ccc(CNC(=O)CCS(=O)(=O)Cc2ccccc2)cc1	2.83
Cc1onc(-c2ccccc2Cl)c1C(=O)NC(=S)Nc1ccccc1F	21.9
Clc1ccc(C(c2ccccc2)N2CCN(c3ccccn3)CC2)cc1 (centres unmarked)	-5.64

SMILES	hERG current change (%, negative = inhibition) at 10uM [%]
CC(=O)N1CCN(S(=O)(=O)c2c(C)n(C)c(=O)n(C)c2=O)CC1	20.8
CC1=C(C(=O)Nc2cccnc2)C(c2ccccn2)n2nnnc2N1 (centres unmarked)	4.87
CCCCC(=O)Nc1ccc(NC(=O)c2ccc([N+](=O)[O-])cc2Cl)cc1OC	4.26
COc1ccc(NC(=O)Cc2ccccc2)cc1	4.36
C/C(=N\NC(=O)c1ccccn1)c1ccc(C(=O)O)s1	6.52
CCCc1nc(NC2CCCCC2)c(C#N)c2c1COC(C)(C)C2	-1.01
COC(=O)C1=C(c2ccc(OCc3ccccc3)cc2)C[C@@H]2CC[C@H]1N2C(=O)NC1CCN(Cc2ccccc2)CC1	-1.06
COc1ccc(N2C(=O)CC(N3CCN(S(=O)(=O)c4cc(C)ccc4C)CC3)C2=O)cc1 (centres unmarked)	-6.8
COc1ccc(CN2CCC(Cc3ccccc3)CC2)cc1OC.O=C(O)C(=O)O	-70.3
COc1ccc(C2Nc3ccccc3C(=O)N2NS(=O)(=O)c2ccc(C)cc2)cc1 (centres unmarked)	-1.65
Br.Cn1c(=N)n(CC(=O)O)c2ccccc21	-5.99
O=C1C=CC[C@H](/C=C/C[C@@H](O)C[C@H](O)CCc2ccccc2)O1	-0.148
Nc1ccccc1C(=O)NCC1(c2ccccc2)CCCC1	11.9
CCOCCCN(CCC#N)S(=O)(=O)c1ccc(S(=O)(=O)N2CCCC2)cc1	11
CN(Cc1ccccc1)c1ccc(C(CC(N)=O)NC(=O)c2ccc(Br)cc2)cc1[N+](=O)[O-] (centres unmarked)	-4.62
COCCn1cnnc1SCC(=O)Nc1ccc(Br)cc1F	-1.79
CCN(CC)Cc1oc(CO)cc(=O)c1O	20.6
C=CCC1NS(=O)(=O)OC(CCCC)C1O (centres unmarked)	11.4
O=C(CCCc1ccccc1)Nc1ccc2c(c1)OCCO2	10.9

SMILES	hERG current change (%, negative = inhibition) at 10uM [%]
O=C(O)c1ccc(Nc2nc3ccccc3nc2NS(=O)(=O)c2ccc(F)cc2)cc1	-15.9
O=C(NCC1CCCO1)C(c1ccncc1)N(Cc1cccs1)C(=O)CN1C(=O)c2ccccc2S1(=O)=O (centres unmarked)	6.46
O=C(COc1ccc(Cl)cc1Cl)NC(=O)c1ccccc1	20.1
CCOC(=O)C1CCN(C(=O)c2ccc(OCC(=O)Nc3ccc(OCC)cc3)c(OC)c2)CC1	-19.5
CC1(c2ccccc2)NC(=O)N(CCN2C(=O)c3ccccc3C2=O)C1=O (centres unmarked)	6.96
CCC(=O)NNC(=O)Cc1c(C)n(C(=O)c2ccc(Cl)cc2)c2ccc(OC)cc12	10.5
Cc1ccc(Cl)cc1NC(=O)C(NS(=O)(=O)c1cccs1)c1ccccc1 (centres unmarked)	-3.95
N#CC(c1ccccc1)N(CCCCl)C(=O)c1ccccc1 (centres unmarked)	-18.9
Cc1ccc(-c2nc3ccsc3c(=O)o2)cc1	11.9
Cc1ccc(C(=O)N2C(=S)C(c3ccc(F)cc3)=NC23CCN(C)CC3)cc1	-40.5
O=C(NCc1ccccc1Cl)C1CCN(S(=O)(=O)N2CCCC2)CC1	12.5
O=C(Nc1ccc(F)cc1F)c1ccccc1NC(=O)C1CC=CCC1C(=O)O (centres unmarked)	12.1
COc1ccc2c([N+](=O)[O-])c(Cl)[nH]c2c1	30.8
C[N+]1(CC2COC(c3ccco3)O2)CCCCC1.[I-] (centres unmarked)	17.2
Cc1nc2scc(-c3cccs3)c2c(=O)n1-n1cccc1	-26.3
Cc1nnc(SCC(=O)NC2CCCC2)n1C(C)C	9.47
CC(C)(C)c1ccc(C(=O)NCCN2CCCC2)cc1.Cl	-6.48
O=C(OCc1ccc(F)cc1)c1cc2ccccc2cc1O	-13.1
